The results in this text go back to US20210188940A1 (BIOAGE LABS, published 2021).

Test in all cases: ELISA, ligand coated on plate, RAGE-Fc titrated, anti-IgG Fc-HRP detection; apparent Kd
For orientation: An ELISA detects its analyte on a solid surface through an enzyme-linked reagent.

Test [1] addresses T1, HMGB1 (amphoterin) (UniProt P09429 1-215, limits assumed).
T1 sequence (looked up): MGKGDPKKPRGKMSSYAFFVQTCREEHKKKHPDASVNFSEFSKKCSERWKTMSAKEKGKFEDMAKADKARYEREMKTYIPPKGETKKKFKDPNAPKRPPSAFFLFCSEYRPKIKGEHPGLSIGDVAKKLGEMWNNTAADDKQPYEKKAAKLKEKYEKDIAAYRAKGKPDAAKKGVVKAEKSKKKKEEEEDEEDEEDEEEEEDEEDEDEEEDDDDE
The method, then:
(§1) Functional ELISA assays were performed to assess the ligand binding characteristics of RAGE-Fc fusion proteins. Apparent binding affinities of RAGE-Fc fusion proteins to the RAGE ligands CML-HSA, HMGB1, S100A9 and S100A12 were measured for the following fusion proteins: Construct #1 (SEQ ID NO: 5), Construct #9 (SEQ ID NO: 53), Construct #10 (SEQ ID NO: 12), Construct #12 (SEQ ID NO: 15), and Construct #16 (SEQ ID NO: 16). Previous experiments were carried out to determine fundamental functionality of an ELISA, optimal coating concentrations and volumes, a dynamic range for the RAGE-Fc constructs, as well as optimized antibody dilutions and TMB development times.
(§2) RAGE ligands CML-HSA, HMGB1, S100A9 and S100A12 were separately coated onto a coated plate (MaxiSorp™) at a concentration of 50 nanomolar (nM), 100 microliters (μL) per well. RAGE ligand CML-HSA was separately coated onto a coated plate (MaxiSorp™) at a concentration of 100 nanograms (ng), 100 μL per well. The plates were then incubated overnight at 4° C. to allow the protein to bind to the plate coating. Following the coating step, the plates were washed once with 150 μL of wash solution (2.67 mM potassium chloride, […], 136.9 mM sodium chloride, 8.10 mM sodium phosphate dibasic, 0.05% Tween-20). […] After the blocking step, two washes were performed with the wash solution. The RAGE-Fc fusion protein was then incubated on the wells in log10 dilution with each separate ligand for 120 minutes at 37° C. while shaking. After the RAGE-Fc binding step, three washes were performed with the wash solution. Binding of the RAGE-Fc fusion to […], HMGB1, S100A9, and S100A12 was detected with a horseradish peroxidase (HRP) conjugated antibody with antigen specificity to IgG Fc (Abcam, Cat. No. ab99759). 100 μL of antibody diluted 1:5000 in DBPS was added to the assay wells, followed by 60 minutes of incubation at 37° C. while shaking. The wells were then washed four times with the wash solution. 100 μL of TMB (ThermoFisher Scientific, Cat. No. 34029) was then added to each well.

Test [2] addresses T2, S100A9 (UniProt P06702 1-114, limits assumed).
T2 sequence (looked up): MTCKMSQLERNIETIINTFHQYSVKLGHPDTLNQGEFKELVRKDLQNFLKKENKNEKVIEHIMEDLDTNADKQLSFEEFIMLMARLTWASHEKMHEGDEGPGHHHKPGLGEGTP
The method, then:
as §1, §2

In test [3] the target is T3, S100A12 (UniProt P80511 1-92, limits assumed).
T3 sequence (looked up): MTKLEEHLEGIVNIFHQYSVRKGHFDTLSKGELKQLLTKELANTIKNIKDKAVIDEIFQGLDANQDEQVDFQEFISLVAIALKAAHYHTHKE
The method, then:
as §1, §2

Test [4] has as its target T4, CML-HSA (carboxymethylated human serum albumin) (human, UniProt P02768, carboxymethylated (CML); modified sites not stated).
T4 construct: An advanced glycation end-product form of HSA, coated on the ELISA plate
T4 sequence (P02768 25-609 limits assumed): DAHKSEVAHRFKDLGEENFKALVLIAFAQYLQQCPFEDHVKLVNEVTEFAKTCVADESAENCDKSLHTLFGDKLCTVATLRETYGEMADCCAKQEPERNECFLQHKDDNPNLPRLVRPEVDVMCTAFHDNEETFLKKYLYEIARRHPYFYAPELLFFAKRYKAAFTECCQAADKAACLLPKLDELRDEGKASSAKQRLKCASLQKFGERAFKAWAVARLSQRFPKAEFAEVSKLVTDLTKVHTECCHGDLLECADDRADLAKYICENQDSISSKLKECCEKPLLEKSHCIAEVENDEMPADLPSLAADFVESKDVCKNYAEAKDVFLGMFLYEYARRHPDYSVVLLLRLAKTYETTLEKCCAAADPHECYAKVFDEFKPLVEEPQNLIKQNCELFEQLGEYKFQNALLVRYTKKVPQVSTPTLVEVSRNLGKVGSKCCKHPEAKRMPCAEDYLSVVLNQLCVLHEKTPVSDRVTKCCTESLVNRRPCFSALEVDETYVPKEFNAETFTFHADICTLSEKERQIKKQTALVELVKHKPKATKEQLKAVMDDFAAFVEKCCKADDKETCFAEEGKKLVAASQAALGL
How it is done:
as §1, §2

B1: Construct #10: RAGE V-C1-C2-V1 stem (M/A)-IgG4-hinge(S/P-AA)-(IgG4CH2-CH3) (Fc fusion)
chain: AQNITARIGEPLVLKCKGAPKKPPQRLEWKLNTGRTEAWKVLSPQGGGPWDSVARVLPNGSLFLPAVGIQDEGIFRCQAMNRNGKETKSNYRVRVYQIPGKPEIVDSASELTAGVPNKVGTCVSEGSYPAGTLSWHLDGKPLVPNEKGVSVKEQTRRHPETGLFTLQSELMVTPARGGDPRPTFSCSFSPGLPRHRALRTAPIQPRVWEPVPLEEVQLVVEPEGGAVAPGGTVTLTCEVPAQPSPQIHWMKDGVPLPLPPSPVLILPEIGPQDQGTYSCVATHSSHGPQESRAVSISIIEPGEEGPTAGEGFDKVREAEDSPQHA[letters of human IgG4 Fc with S228P F234A L235A (EU numbers) left out]
notes: also called esRAGE-Fc fusion
For the molecule B1, the Kd worked out at 15 nM in test [1], 41 nM in test [2] and 46 nM in test [3].

B2: Construct #9: RAGE V-C1-C2-shortened stem-VH8aa-IgG4-hinge(S/P-AA)-(IgG4CH2-CH3) (Fc fusion)
chain: AQNITARIGEPLVLKCKGAPKKPPQRLEWKLNTGRTEAWKVLSPQGGGPWDSVARVLPNGSLFLPAVGIQDEGIFRCQAMNRNGKETKSNYRVRVYQIPGKPEIVDSASELTAGVPNKVGTCVSEGSYPAGTLSWHLDGKPLVPNEKGVSVKEQTRRHPETGLFTLQSELMVTPARGGDPRPTFSCSFSPGLPRHRALRTAPIQPRVWEPVPLEEVQLVVEPEGGAVAPGGTVTLTCEVPAQPSPQIHWMKDGVPLPLPPSPVLILPEIGPQDQGTYSCVATHSSHGPQESRAVSISIIEPGEEGPTAGGTLVTVSS[letters of human IgG4 Fc with S228P F234A L235A (EU numbers) left out]
notes: also called RAGE-Fc fusion lacking the C-terminal 13 amino acid RAGE stem
Regarding B2, the Kd in test [4] was determined as 6 nM; in test [1] it was 2 nM; in test [2] it was 13 nM; in test [3] it was 9 nM.

B3: Construct #1: RAGE V-C1-C2-Natural Stem-short linker-IgG1 hinge-(IgG1CH2-CH3) (Fc fusion)
chain: not shown
notes: also called RAGE-Fc fusion in the prior art; commercial RAGE-Fc fusion protein
As to B3, the Kd worked out at 88 nM in test [4], 26 nM in test [1], 266 nM in test [2] and 180 nM in test [3].
